One series concerns cells. As to the kind of experiment: Cell Titer Blue % cell viable (24 hrs). Format: cell-based. To be noted: Conc 30 μM. On the procedure: The viability of cells upon treatment was assessed by CellTiter-Blue® reagent following the manufacturer's protocol in RKO, UM10B, UM1, MCR5, and UMCC92 cells. Briefly, 10,000 cells were plated in 96-well plate in quadruplets. One day after seeding, cells were treated with a range of concentrations (0.1 to 30 micromolar). […] Only the viable cells convert the redox dye (reszurin) into a fluorescent product (resofurin). The emission of fluorescence (excitation 560 nm) was measured at […]. The IC50 value was calculated as the mean concentration of compounds required to inhibit cell proliferation as measured by the fluorescence at […] by 50 percent compared to the vehicle-treated controls.
Background: Resazurin is reduced to fluorescent resorufin, in cell work by metabolically active cells.

For a further series, the system named is UM10B cells. The series can be described thus: Clonogenic IC50, UM10B. Format: cell-based.

Results on three molecules are retold here after patent publication US11358965B2, “EGFR dimer disruptors and use of the same” (THE REGENTS OF THE UNIVERSITY OF MICHIGAN, priority 2018, dated 2022).

One may read the IC50 as the concentration that gives 50% inhibition. The term viability denotes a read-out of living cells in per cent, often relative to untreated cells.

The structures appear in SMILES notation.

Turning to `CC1(C)N=C(c2ccc(F)cc2)C(=O)N1CC(=O)Nc1ccc(F)c(Cl)c1` [Compound 14], in the series with cells, the “% Cell viable (24 hrs)” value was 99.7%. `COc1ccc(NC(=O)CN2C(=O)C(c3ccc(F)cc3)=NC2(C)C)cc1Cl` [Compound 17]: in the series with cells, the “% Cell viable (24 hrs)” value was 109%. In the series with UM10B cells, this molecule showed an IC50 of 44 µM.

Take `COc1ccc(C2=NC3(CCCCC3)N=C2SCC(=O)Nc2ccc(OC)c(Cl)c2)cc1` [Compound 30]: in the series on cells (24 h), the viability at 30 µM stood at 112%. For the same molecule, the midpoint of inhibition in the series with UM10B cells, the IC50, lay at 6.5 µM.
